A compilation of properties of binary mixtures (doi:10.1021/acs.jced.0c00740)
Some of these densities may be calculated back from excess volumes.

Assay: xn = mol fraction of the nth substance listed
Conditions: 101 kPa

C[S+](C)C.O=S(=O)([N-]S(=O)(=O)C(F)(F)F)C(F)(F)F + N#CCCCC#N
mass density (283 K, x1 = 0.2085): 1232.5 kg/m3
mass density (288 K, x1 = 0.2085): 1228.1 kg/m3
mass density (293 K, x1 = 0.2085): 1223.7 kg/m3
mass density (298 K, x1 = 0.2085): 1219.3 kg/m3
mass density (308 K, x1 = 0.2085): 1210.6 kg/m3
mass density (313 K, x1 = 0.2085): 1206.3 kg/m3
mass density (323 K, x1 = 0.2085): 1197.7 kg/m3
mass density (343 K, x1 = 0.2085): 1180.3 kg/m3
mass density (353 K, x1 = 0.2085): 1171.7 kg/m3

C[NH+](C)C.O=S(=O)([N-]S(=O)(=O)C(F)(F)F)C(F)(F)F + N#CCCCC#N
mass density (278 K, x1 = 0.2167): 1222.3 kg/m3
mass density (283 K, x1 = 0.2167): 1217.8 kg/m3
mass density (293 K, x1 = 0.2167): 1208.8 kg/m3
mass density (303 K, x1 = 0.2167): 1199.8 kg/m3
mass density (308 K, x1 = 0.2167): 1195.4 kg/m3
mass density (313 K, x1 = 0.2167): 1191 kg/m3
mass density (323 K, x1 = 0.2167): 1182.1 kg/m3
mass density (328 K, x1 = 0.2167): 1177.7 kg/m3
mass density (333 K, x1 = 0.2167): 1173.3 kg/m3
mass density (338 K, x1 = 0.2167): 1168.9 kg/m3
mass density (343 K, x1 = 0.2167): 1164.5 kg/m3
mass density (348 K, x1 = 0.2167): 1160.1 kg/m3
